# Measured values as given in PubChem BioAssay AID1508621 (National Center for Advancing Translational Sciences (NCATS), 2021).
# The inconclusive results got no clear call from the source; some entries with a clear call stand among them for comparison. A potency beside an inconclusive call is a rough fit, not a confirmed value. The source made the active and inactive calls. Calls follow the shape of the dose curve; as a rule, active = well fitted inhibition curve with a large enough effect; inconclusive = small, poorly fitted or top-dose-only effect; inactive = no such curve, though single readings can be large or run the other way.
# Test: Confirmatory qHTS for Identification of Small Molecule Inhibitors of Huntingtin Promoter Activity; also: nearly all actives have a fitted effect of over 65% in size;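 as to activity change, negative = inhibition: 0% = vehicle control and -100% = zero luminescence signal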
# Conditions: HEK293 HTT promoter firefly luciferase reporter, 24 h; series mostly up to 57.5 µM; activity change, negative = inhibition: at the top concentration
# Outline: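 Plated reporter HEK293 cells (24 h) received library compounds at up to 57.5 uM final or 50 uM PTC124, incubated 24 h at 37C; firefly luciferase luminescence was then recorded with Dual-Glo reagent.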
# Potency is read from the fitted curve at half-maximal effect; tags tell the direction and shape of the fitted curve.
Compound,Potency,"activity change, negative = inhibition"
COc1ccc2c(c1)CCc1c(C(=O)Nc3c(C)nn(Cc4ccccc4C)c3C)noc1-2,"inconclusive: 16.9 µM [inhibitor, partial curve]",–
Cc1ccc(Cl)cc1-n1ncc2c(Nc3cccc(C)c3C)ncnc21,"inconclusive: 16.9 µM [inhibitor, partial curve]",–
COc1ccc(C2c3c(-c4c(C)cc(C)cc4O)n[nH]c3C(=O)N2Cc2ccco2)cc1 (stereo not given),"inconclusive: 37.9 µM [inhibitor, single point]",–
COc1ccc(Br)cc1CNC(=O)CSc1n[nH]c(-c2ccccc2)n1,"inconclusive: 26.9 µM [inhibitor, single point]",–
CCOc1ccc(CNC(=O)c2ccc3nc(Cc4ccc(OC)cc4)oc3c2)cc1OC,"inconclusive: 13.5 µM [inhibitor, partial curve]",–
Cc1ccc(-c2[nH]c3ccccc3c2SCCNC(=O)c2ccc(S(=O)(=O)N(C)C)cc2)cc1,"inconclusive: 15.1 µM [inhibitor, partial curve]",–
Cc1nc(C)c(-c2ccc(SCC(=O)Nc3ccc(F)c(F)c3)nn2)s1,"inconclusive: 23.9 µM [inhibitor, partial curve]",–
COc1ccc(C(=O)Nc2ccc(S(=O)(=O)N(Cc3ccccc3)c3ccccc3)cc2)cc1,"inconclusive: 1.51 µM [inhibitor, full curve]",–
CN1CCCC(n2nc(Cc3ccc(Cl)cc3)c3ccccc3c2=O)CC1 (stereo not given),"inconclusive: 23.9 µM [inhibitor, single point]",–
O=C(CCn1cnc2onc(-c3ccc(F)cc3)c2c1=O)Nc1ccc(F)c(Cl)c1,"inconclusive: 23.9 µM [inhibitor, partial curve]",–
O=C(Nc1ccc(F)c(Cl)c1)C1CCN(S(=O)(=O)c2ccc3c(c2)CCCN3C(=O)C2CCC2)CC1,"inconclusive: 12 µM [inhibitor, partial curve]",–
Cc1ccc(S(=O)(=O)Nc2cccc(-c3ccc(N4CCCCC4)nn3)c2)s1,–,inactive: -21.3%
CCOc1ccccc1C(=O)Nc1ccc(-n2nncc2-c2ccccc2)cc1,"inconclusive: 23.9 µM [inhibitor, partial curve]",–
O=C(Nc1ccc(Br)cc1)c1ccc(Br)c(S(=O)(=O)N2CCCCC2)c1,"inconclusive: 8.49 µM [inhibitor, partial curve]",–
CCc1ccc(NC(=O)c2ccc3oc(=O)n(Cc4ccccc4)c3c2)cc1,"inconclusive: 15.1 µM [inhibitor, partial curve]",–
CCc1nc2ccc(C(=O)NCCc3ccc(OC)cc3OC)cc2nc1CC,–,inactive: -18.9%
COc1ccc(CCNC(=O)c2ccc3nc(Cc4ccccc4)oc3c2)cc1OC,"inconclusive: 26.9 µM [inhibitor, partial curve]",–
CCc1cccc(-n2nnc(S(=O)(=O)c3ccc(OC)cc3)c2C)c1,"inconclusive: 21.3 µM [inhibitor, single point]",–
Cc1ccc(C)c(OCCCC(C)(C)C(=O)O)c1,–,inactive: -5.05%
O=C(CN(c1cccc(C(F)(F)F)c1)S(=O)(=O)c1ccccc1)Nc1cccc(Cl)c1,active: 26.9 µM,–

Compound,Potency,"activity change, negative = inhibition"
CC(C)c1ccc(NC(=O)c2cnc3sc(N4CCCC4)nn3c2=O)cc1,"inconclusive: 0.379 µM [inhibitor, full curve]",–
CCN1C(=O)c2ccccc2Sc2ccc(NC(=O)Nc3ccc(Br)c(C)c3)cc21,"inconclusive: 26.9 µM [inhibitor, partial curve]",–
Cc1ccccc1-c1ccnc2c(-c3ccc(F)cc3)c(C)nn12,"inconclusive: 30.1 µM [inhibitor, partial curve]",–
COc1ccc(-c2nc(N3CCOCC3)c3sc(CN(C)c4ncc(C(=O)NO)cn4)cc3n2)cn1,–,inactive: 1.4%
COc1cc(OC)c(N(C)C(=O)c2cn(C3CCCC3)c(=O)c3c2c2ccccc2n3C)cc1Cl,"inconclusive: 26.9 µM [inhibitor, single point]",–
COc1ccccc1N1CCN(C(CNC(=O)C(=O)NCc2ccc(C)cc2)c2cccnc2)CC1 (stereo not given),"inconclusive: 6.75 µM [inhibitor, partial curve]",–
Cc1ccc(C)c(NC(=O)CSc2nnc(-c3cc4occc4n3C)n2-c2ccccc2C)c1,"inconclusive: 26.9 µM [inhibitor, single point]",–
Cc1nc(-c2ccc(Cl)cc2)sc1CCNC(=O)Cc1ccc(F)cc1,"inconclusive: 12 µM [inhibitor, partial curve]",–
Cc1cc(NC(=O)c2cc(Cl)ccc2Cl)ccc1-c1cc2ccccc2oc1=O,"inconclusive: 5.36 µM [inhibitor, partial curve]",–
COc1ccccc1C(=O)N1c2ccccc2C(C)(c2ccc(Cl)cc2)CC1(C)C (stereo not given),"inconclusive: 26.9 µM [inhibitor, single point]",–
Cc1ccc(C)c(-n2nnc(C(=O)Nc3ccc(Br)cc3)c2C)c1,–,inactive: -18.6%
CCOc1ccc(NC(=O)c2c(Nc3ccccc3C)sc(C(=O)c3ccccc3)c2N)cc1,"inconclusive: 4.78 µM [inhibitor, partial curve]",–
CCOc1ccc(C(=O)Nc2ccc(S(=O)(=O)N3CCCCC3c3cccnc3)cc2)cc1 (stereo not given),active: 21.3 µM,–
CC(=O)N1CCCc2cc(S(=O)(=O)N3CCCC(C(=O)N4CCN(c5ccccc5)CC4)C3)ccc21 (stereo not given),active: 9.53 µM,–
CCOc1ccc(-c2nc(CSCC(=O)NCCc3ccc(OCC)c(OCC)c3)c(C)o2)cc1,"inconclusive: 10.7 µM [inhibitor, partial curve]",–
FC(F)(F)c1cccc(Nc2c3c(nc4ccc(Cl)cc24)CCC3)c1,"inconclusive: 16.9 µM [inhibitor, partial curve]",–
COCCN1C(=O)c2[nH]nc(-c3ccccc3O)c2C1c1ccc(OCc2ccccc2)c(OC)c1 (stereo not given),"inconclusive: 26.9 µM [inhibitor, single point]",–
CCCCOC(=O)c1ccc(NC(=O)c2sc3nc(C)cc(C)c3c2N)cc1,active: 12 µM,–
Cn1cnc(S(=O)(=O)N2CCC(C(=O)Nc3ccc(OC(F)(F)F)cc3)CC2)c1,"inconclusive: 23.9 µM [inhibitor, single point]",–
Cc1ccc(Cl)cc1-n1ncc2c(N3CCC(C)CC3)ncnc21,"inconclusive: 30.1 µM [inhibitor, partial curve, poor fit]",–
